# Assay results taken from paper PMC4336329 (PLoS ONE, 2015).
# The whole screen tested about 310,000 compounds, of which about 2,200 (0.71%) showed an effect of 50% or more. Effects have a minus sign here. The list shows a part of the results.
# Molecular target: human ether-à-go-go-related gene (hERG) potassium channel (human, UniProt Q12809)
# Assay: primary screen, population patch clamp on CHO cells stably expressing hERG
# human ether-à-go-go-related gene (hERG) potassium channel, sequence (Q12809 whole entry, looked up): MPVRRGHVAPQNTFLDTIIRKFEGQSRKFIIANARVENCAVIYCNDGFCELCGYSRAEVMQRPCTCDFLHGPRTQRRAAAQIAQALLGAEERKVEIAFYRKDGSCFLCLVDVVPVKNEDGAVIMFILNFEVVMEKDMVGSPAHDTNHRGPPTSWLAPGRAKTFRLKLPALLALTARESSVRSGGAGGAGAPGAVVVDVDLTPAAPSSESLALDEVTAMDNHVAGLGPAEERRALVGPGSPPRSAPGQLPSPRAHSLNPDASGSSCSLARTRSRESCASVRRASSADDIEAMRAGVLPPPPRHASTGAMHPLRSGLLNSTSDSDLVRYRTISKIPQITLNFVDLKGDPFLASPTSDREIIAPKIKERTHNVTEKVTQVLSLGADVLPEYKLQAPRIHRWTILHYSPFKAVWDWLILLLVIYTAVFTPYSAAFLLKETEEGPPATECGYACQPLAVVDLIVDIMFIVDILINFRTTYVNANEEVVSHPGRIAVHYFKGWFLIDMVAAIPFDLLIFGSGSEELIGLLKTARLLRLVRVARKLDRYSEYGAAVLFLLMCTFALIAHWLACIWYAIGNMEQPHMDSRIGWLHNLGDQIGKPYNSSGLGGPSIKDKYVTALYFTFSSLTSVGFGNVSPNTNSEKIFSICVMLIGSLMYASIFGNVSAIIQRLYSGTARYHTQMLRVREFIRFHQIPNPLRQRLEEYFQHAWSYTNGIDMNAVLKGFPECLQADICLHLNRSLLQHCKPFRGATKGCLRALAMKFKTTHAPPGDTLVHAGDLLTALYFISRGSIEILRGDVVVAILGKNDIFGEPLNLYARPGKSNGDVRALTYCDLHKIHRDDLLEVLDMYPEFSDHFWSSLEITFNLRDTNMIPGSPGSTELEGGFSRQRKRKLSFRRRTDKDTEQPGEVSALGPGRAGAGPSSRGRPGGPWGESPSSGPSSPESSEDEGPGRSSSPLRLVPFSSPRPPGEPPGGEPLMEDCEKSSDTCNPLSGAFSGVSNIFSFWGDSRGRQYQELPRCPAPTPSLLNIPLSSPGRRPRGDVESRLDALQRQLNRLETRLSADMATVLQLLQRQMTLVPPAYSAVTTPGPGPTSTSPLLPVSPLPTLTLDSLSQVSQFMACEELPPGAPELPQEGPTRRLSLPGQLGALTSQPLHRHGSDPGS
row,SMILES,"hERG current change (%, negative = inhibition) at 1uM [%]"
1,COc1ccc(S(=O)(=O)NCCc2csc(-c3cccnc3)n2)cc1,-9.72
2,C[C@@]12C(=O)N(c3cccc(F)c3)C(=O)N1[C@H](c1ccc(Cl)cc1)[C@@H]1C(=O)N(C3CCCCC3)C(=O)[C@@H]12,5.1
3,O=C(O)CNS(=O)(=O)c1cccc(Cl)c1,16.2
4,CCOc1ccc(/C=C/C(=O)N(CC)CC(=O)Nc2ccc3c(c2)OCCO3)cc1OC,-7.86
5,Cc1coc2cc3oc(=O)c(CC(=O)N[C@@H](CC(C)C)C(=O)O)c(C)c3cc12,12.7
6,Cc1ccc(N=c2c([N+](=O)[O-])nn(-c3ccccc3)n2O)c(C)c1,-8.64
7,C=CCNC(=O)CC(C)C(CCCCC)C(=O)O (stereo not shown),12
8,O=C(Cc1nn[nH]n1)Nc1ccc(F)cc1F,5.94
9,COc1cccc(-c2nn3c(-c4cc(C)[nH]n4)nnc3s2)c1,-37.5
10,O=C(Nc1ccccc1N1CCCCC1)c1cc(S(=O)(=O)N2CCOCC2)ccc1Cl,7.72
11,Cn1cnc(S(=O)(=O)N2CCN(c3ccc(Cl)cc3)CC2)c1,0.126
12,O=S(=O)(c1ccccc1F)N1CCN(CCOc2ccccc2)CC1,3.57
13,O=C(/C=C/c1ccco1)N1CCCC(c2ccccc2)C1 (stereo not shown),7.68
14,O=C(COc1ccccc1)NCc1ccc2c(c1)OCO2,3.49
15,COc1ccc2c(c1)C1CC(C)(NC(=O)C1S(=O)(=O)c1ccc(F)cc1)O2 (stereo not shown),7.97
16,CCNc1nc(Sc2ccc(C)cc2)cc(C(F)(F)F)n1,9.96
17,COc1ccc2c(c1)C=C(C(=O)OCc1cccnc1)CO2,10.4
18,O=C(Cc1ccccc1)NCC(=O)Nc1ccccc1Br,17.9
19,CC(C)c1ccc(-c2noc(C3CCCN(S(C)(=O)=O)C3)n2)cc1 (stereo not shown),7.38
20,O=C(O)c1cc2c(cn1)[nH]c1ccccc12,6.5
21,COC(=O)c1cc(NC2c3ccccc3C(=O)N2c2ccc(Cl)cn2)cc(C(=O)OC)c1 (stereo not shown),16.4
22,CCc1[nH]c(=O)c(C#N)c2c1CCCC2,-6.15
23,CCC(=O)N1CCc2cc(Br)cc(S(=O)(=O)C3(C(=O)OC)CC3)c21,13.1
24,CCc1ccc(CN2CCC(n3nccc3NC(=O)c3cccc(F)c3)CC2)cc1,-78.3
25,O=C(NCc1ccc2c(c1)OCO2)c1nc(Cn2ccc([N+](=O)[O-])n2)no1,6.56
